Reference: the supplement of paper PMC4967469
pIC50: −log10 of the molar value. The IC50 comes from the fitted curve, where viability falls to half of the control; where the fit passes the top or lowest dose, that dose stands as a limit. AUC, from the same fit, is the share of area under the viability curve across the 256-fold dose range; it is 1 without any effect and falls as sensitivity rises. For some of these results: A top dose marked as inferred is not printed in the source and was worked back from the curve model. For some of these results: Drugs with an entry number were screened twice under separate entries, and the two screens often disagree.

What was measured:
Experiment in all cases: Viability of human cancer cell lines after 72 h of drug (GDSC screen)
[1] = compound: Cc1cccc(-c2[nH]c(C(C)(C)C)nc2-c2ccc3c(c2)OCO3)n1 [SB-505124]; details: top dose 10 µM; top dose inferred
Experimental: (§1)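 Human cancer cell lines in 384-well plates, medium with 10% serum, drug for 72 h over a 256-fold dose range (nine 2-fold or five 4-fold steps up to the top dose). Adherent lines were fixed and stained with the nucleic acid dye Syto60, suspension lines read with resazurin; signal relative to control wells, capped at 0 and 100%. One two-parameter sigmoid per drug and line, fitted in a mixed model over all curves with the slope shared within a line.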

[2] = compound: CCn1c(-c2nonc2N)nc2c(C#CC(C)(C)O)ncc(OC[C@H]3CCCNC3)c21 [GSK690693]; details: top dose 10.24 µM; top dose inferred
Experimental: as §1

[3] = compound: CC1=C(/C=C/C(C)=C/C=C/C(C)=C/C(=O)O)C(C)(C)CCC1 [Tretinoin]; details: top dose 10 µM; top dose inferred
Experimental: as §1

[4] = compound: COc1cc2c(NC3CCN(C(C)C)CC3)nc(C3CCCCC3)nc2cc1OCCCN1CCCC1 [UNC0638]
Experimental: as §1

[5] = compound: Oc1cccc(-c2nc(N3CCOCC3)c3oc4ncccc4c3n2)c1 [PI-103]; details: top dose 10.24 µM
Experimental: as §1

[6] = compound: O=C(NCCCNc1nc(Nc2cccc(NC(=O)N3CCCC3)c2)ncc1I)c1cccs1 [BX-795]; details: top dose 5 µM; top dose inferred
Experimental: as §1

[7] = compound: COc1ccc(N(C(=O)Oc2c(C)cccc2C)c2ccnc(Nc3ccc(N4CCN(C)CC4)cc3)n2)c(OC)c1 [WH-4-023]; details: top dose 5.12 µM; top dose inferred
Experimental: as §1

[8] = top dose 20 µM, screen: GDSC drug entry 1236, top dose inferred
[9] = top dose 40 µM, screen: GDSC drug entry 245

Cell Line	AUC [1]	pIC50 [1]	AUC [2]	pIC50 [2]	AUC [3]	pIC50 [3]	AUC [4, 8]	pIC50 [4, 8]	AUC [4, 9]	pIC50 [4, 9]	AUC [5]	pIC50 [5]	AUC [6]	pIC50 [6]	AUC [7]	pIC50 [7]
DEL (lymphoid neoplasm, suspension)	0.959	< 5.00	0.954	< 4.99	0.994	< 5.00	0.815	5.09	0.516	5.56	0.517	6.15	0.994	< 5.30	0.962	< 5.29
DG-75 (Burkitt lymphoma, suspension)	0.945	< 5.00	0.987	< 4.99	0.96	< 5.00	0.744	5.20	0.795	4.73	0.845	5.12	0.883	< 5.30	0.942	< 5.29
DMS-79 (small cell lung carcinoma, suspension)	0.974	< 5.00	0.95	< 4.99	0.975	< 5.00	0.923	< 4.70	0.781	4.71	0.738	5.46	0.979	< 5.30	0.941	< 5.29
DMS-114 (small cell lung carcinoma, adherent)	0.956	< 5.00	0.881	< 4.99	0.977	< 5.00	0.798	4.95	0.756	4.81	0.386	6.53	0.899	< 5.30	0.83	5.41
DND-41 (T-cell leukaemia, suspension)	0.98	< 5.00	0.876	5.09	0.986	< 5.00	0.699	5.38	0.426	5.79	0.467	6.28	0.783	5.73	0.943	< 5.29
DSH1 (bladder, adherent)	0.982	< 5.00	0.945	< 4.99	0.977	< 5.00	0.988	< 4.70	0.888	< 4.40	0.726	5.57	0.908	< 5.30	0.986	< 5.29
DU-4475 (breast, suspension)	0.981	< 5.00	0.981	< 4.99	0.978	< 5.00	0.834	5.01	0.735	5.00	0.726	5.62	0.804	5.70	0.977	< 5.29
Daudi (Burkitt lymphoma, suspension)	0.977	< 5.00	0.901	< 4.99	0.966	< 5.00	0.784	5.13	0.719	5.02	0.199	7.02	0.952	< 5.30	0.595	6.25
EB2 (Burkitt lymphoma, suspension)	0.982	< 5.00	0.173	7.13	0.988	< 5.00	0.756	5.20	0.573	5.41	0.106	> 7.40	0.989	< 5.30	0.95	< 5.29
EB-3 (Burkitt lymphoma, suspension)	0.913	< 5.00	0.945	< 4.99	0.983	< 5.00	0.747	5.14	0.712	4.95	0.212	7.11	0.984	< 5.30	0.682	5.95
EC-GI-10 (oesophagus, adherent)	0.987	< 5.00	0.989	< 4.99	0.955	< 5.00	0.923	< 4.70	0.979	< 4.40	0.989	< 4.99	0.86	5.39	0.987	< 5.29
EJM (lymphoid neoplasm, semi-adherent)	0.987	< 5.00	0.951	< 4.99	0.964	< 5.00	0.834	4.99	0.679	5.14	0.312	6.68	0.927	< 5.30	0.992	< 5.29
EKVX (lung adenocarcinoma, adherent)	0.957	< 5.00	0.969	< 4.99	0.844	< 5.00	0.965	< 4.70	0.97	< 4.40	0.763	5.03	0.859	< 5.30	0.966	< 5.29
EM-2 (chronic myeloid leukaemia, suspension)	0.976	< 5.00	0.924	< 4.99	0.753	5.43	0.78	5.03	0.712	4.96	0.683	5.65	0.761	5.70	0.109	> 7.70
ES1 (Ewing sarcoma, adherent)	0.882	< 5.00	0.643	5.80	0.986	< 5.00	0.752	5.19	0.598	5.33	0.202	7.07	0.835	5.49	0.964	< 5.29
ES4 (Ewing sarcoma, adherent)	0.965	< 5.00	0.729	5.49	0.915	< 5.00	0.765	5.08	0.709	4.97	0.523	6.13	0.889	< 5.30	0.973	< 5.29
ES5 (Ewing sarcoma, adherent)	0.964	< 5.00	0.305	6.78	0.971	< 5.00	0.592	5.63	0.491	5.63	0.275	6.88	0.708	5.87	0.974	< 5.29

Cell Line	AUC [1]	pIC50 [1]	AUC [2]	pIC50 [2]	AUC [3]	pIC50 [3]	AUC [4, 8]	pIC50 [4, 8]	AUC [4, 9]	pIC50 [4, 9]	AUC [5]	pIC50 [5]	AUC [6]	pIC50 [6]	AUC [7]	pIC50 [7]
ES6 (Ewing sarcoma, adherent)	0.956	< 5.00	0.923	< 4.99	0.948	< 5.00	0.744	5.12	0.654	5.13	0.79	5.24	0.892	< 5.30	0.672	5.96
ES7 (Ewing sarcoma, adherent)	0.949	< 5.00	0.859	5.05	0.893	< 5.00	0.761	5.14	0.634	5.23	0.33	6.67	0.671	6.02	0.942	< 5.29
ES8 (Ewing sarcoma, adherent)	0.935	< 5.00	0.612	5.90	0.985	< 5.00	0.785	5.10	0.629	5.26	0.438	6.36	0.723	5.90	0.929	< 5.29
ES-2 (ovary, adherent)	0.99	< 5.00	0.991	< 4.99	0.991	< 5.00	0.794	5.10	0.605	5.33	0.783	5.42	0.846	5.52	0.99	< 5.29
ETK-1 (biliary tract, adherent)	0.96	< 5.00	0.954	< 4.99	0.962	< 5.00	0.564	5.72	0.517	5.55	0.957	< 4.99	0.84	5.39	0.741	5.76
EVSA-T (breast, adherent)	0.882	5.10	0.842	5.24	0.942	< 5.00	0.802	5.09	0.662	5.18	0.37	6.53	0.86	5.49	0.941	< 5.29
EW-1 (Ewing sarcoma, semi-adherent)	0.984	< 5.00	0.453	6.32	0.989	< 5.00	0.827	4.96	0.563	5.44	0.475	6.26	0.948	< 5.30	0.967	< 5.29
EW-3 (Ewing sarcoma, adherent)	0.962	< 5.00	0.941	< 4.99	0.982	< 5.00	0.752	5.13	0.609	5.28	0.543	6.07	0.906	< 5.30	0.943	< 5.29
EW-11 (Ewing sarcoma, adherent)	0.916	< 5.00	0.528	6.11	0.859	< 5.00	0.732	5.15	0.629	5.20	0.357	6.64	0.884	< 5.30	0.977	< 5.29
EW-13 (Ewing sarcoma, suspension)	0.972	< 5.00	0.852	5.03	0.976	< 5.00	0.925	< 4.70	0.678	5.08	0.362	6.59	0.933	< 5.30	0.984	< 5.29
EW-16 (Ewing sarcoma, adherent)	0.873	< 5.00	0.929	< 4.99	0.954	< 5.00	0.763	5.12	0.607	5.30	0.413	6.44	0.799	5.60	0.868	5.30
EW-18 (Ewing sarcoma, suspension)	0.978	< 5.00	0.469	6.28	0.932	< 5.00	0.801	4.98	0.559	5.44	0.237	6.98	0.799	5.59	0.986	< 5.29
EW-24 (Ewing sarcoma, semi-adherent)	0.976	< 5.00	0.993	< 4.99	0.972	< 5.00	0.965	< 4.70	0.791	4.81	0.993	< 4.99	0.977	< 5.30	0.989	< 5.29
EoL-1-cell (haematopoietic neoplasm, suspension)	0.973	< 5.00	0.871	5.11	0.107	7.38	0.67	5.46	0.496	5.61	0.789	5.40	0.226	7.25	0.032	> 7.70
Farage (B-cell lymphoma, suspension)	0.981	< 5.00	0.485	6.23	0.963	< 5.00	0.992	< 4.70	0.674	5.16	0.163	7.10	0.898	5.37	0.632	6.16
GB-1 (glioma, adherent)	0.947	< 5.00	0.98	< 4.99	0.929	< 5.00	0.971	< 4.70	0.686	5.04	0.566	6.00	0.816	5.46	0.594	6.21
GDM-1 (acute myeloid leukaemia, suspension)	0.959	< 5.00	0.748	5.50	0.987	< 5.00	0.828	4.93	0.571	5.41	0.057	> 7.40	0.866	5.38	0.6	6.22
